Results taken from the supplement of paper PMC10369915.
This is one part of the list. Cut-off read from the data, not from the text of the source: active = 3.2 or more and inactive = the rest. The signal is at background level for most entries.

target: SHP2 C-SH2 domain E139D; assay: enrichment score (SH2-bound / input frequency) (ratio); bacterial display of known human phosphotyrosine sites (pTyr-Var adds point mutants) read by sequencing; higher = stronger binding; tyrosines were phosphorylated by kinases first; conditions: peptide library: pTyr-Var
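Note: displayed peptides selected on beads carrying the immobilized SH2 domain, with library peptides lacking any tyrosine serving as negative controls.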

Enrichment score, inactive:
YRDALYKSMVD [PHEX_Y250_F252S] 0.929
RLQAAYNLVKR [PFKM_Y103_R100Q] 1.93
HLDRSYSYSYS [PEAR1_Y890_R885H] 0.589
AGEGSYALDSE [PES1_Y265_T264S] 0.606
FDDIAYIRKNL [PIK3CA_Y1021_T1025N] 1.19
IRFSDYVEVAD [PHACTR1_Y525] 1.09
QEALEYFMKQM [PIK3CA_Y1038] 1.33
LNERHYGGLTG [PGAM2_Y92] 0.788
FRDALYKSMVD [PHEX_Y250_F252S_YF] 1.02
FSNKLHFQLEQ [PDPR_Y109_Y109H_YF] 1.33
LNERHYGGLTD [PGAM2_Y92_G97D] 0.64
AGVIIYTSRFQ [PFAS_Y538_A535V] 0.687
VGGRIYIDDGL [PKLR_Y218] 1.48
QEALEYFMKQI [PIK3CA_Y1038_M1043I] 1.34
LNEQHYGGLTG [PGAM4_Y92_R90Q] 0.619
KLGDVYVNDAF [PGK1_Y161] 0.852
EYHRLYEEYTR [PIK3R1_Y467_D464H] 0.913
TKQLTYEEQDL [PIK3C3_Y310] 0.575

target: SHP2 C-SH2 domain wild-type; assay: as above; conditions: peptide library: pTyr-Var

Enrichment score, inactive:
YRDALYKSMVD [PHEX_Y250_F252S] 0.996
RLQAAYNLVKR [PFKM_Y103_R100Q] 1.87
HLDRSYSYSYS [PEAR1_Y890_R885H] 0.636
AGEGSYALDSE [PES1_Y265_T264S] 0.257
FDDIAYIRKNL [PIK3CA_Y1021_T1025N] 0.858
IRFSDYVEVAD [PHACTR1_Y525] 1.26
QEALEYFMKQM [PIK3CA_Y1038] 1.06
LNERHYGGLTG [PGAM2_Y92] 0.752
FRDALYKSMVD [PHEX_Y250_F252S_YF] 1.08
FSNKLHFQLEQ [PDPR_Y109_Y109H_YF] 1.16
LNERHYGGLTD [PGAM2_Y92_G97D] 0.783
AGVIIYTSRFQ [PFAS_Y538_A535V] 0.663
VGGRIYIDDGL [PKLR_Y218] 1.15
QEALEYFMKQI [PIK3CA_Y1038_M1043I] 1.18
LNEQHYGGLTG [PGAM4_Y92_R90Q] 0.334
KLGDVYVNDAF [PGK1_Y161] 0.792
EYHRLYEEYTR [PIK3R1_Y467_D464H] 0.787
TKQLTYEEQDL [PIK3C3_Y310] 0.613

target: SHP2 N-SH2 domain L43F; assay: as above; conditions: peptide library: pTyr-Var

Enrichment score, inactive:
YRDALYKSMVD [PHEX_Y250_F252S] 1.02
RLQAAYNLVKR [PFKM_Y103_R100Q] 1.97
HLDRSYSYSYS [PEAR1_Y890_R885H] 0.545
AGEGSYALDSE [PES1_Y265_T264S] 0.483
FDDIAYIRKNL [PIK3CA_Y1021_T1025N] 1.11
IRFSDYVEVAD [PHACTR1_Y525] 1.3
QEALEYFMKQM [PIK3CA_Y1038] 0.852
LNERHYGGLTG [PGAM2_Y92] 0.817
FRDALYKSMVD [PHEX_Y250_F252S_YF] 0.969
FSNKLHFQLEQ [PDPR_Y109_Y109H_YF] 1.08
LNERHYGGLTD [PGAM2_Y92_G97D] 0.855
AGVIIYTSRFQ [PFAS_Y538_A535V] 0.67
VGGRIYIDDGL [PKLR_Y218] 1.28
QEALEYFMKQI [PIK3CA_Y1038_M1043I] 1.18
LNEQHYGGLTG [PGAM4_Y92_R90Q] 0.47
KLGDVYVNDAF [PGK1_Y161] 0.985
EYHRLYEEYTR [PIK3R1_Y467_D464H] 0.913
TKQLTYEEQDL [PIK3C3_Y310] 0.611

target: SHP2 N-SH2 domain T42A; assay: as above; conditions: peptide library: pTyr-Var

Enrichment score, inactive:
YRDALYKSMVD [PHEX_Y250_F252S] 0.712
RLQAAYNLVKR [PFKM_Y103_R100Q] 1.66
HLDRSYSYSYS [PEAR1_Y890_R885H] 0.572
AGEGSYALDSE [PES1_Y265_T264S] 0.246
FDDIAYIRKNL [PIK3CA_Y1021_T1025N] 0.743
IRFSDYVEVAD [PHACTR1_Y525] 1.02
QEALEYFMKQM [PIK3CA_Y1038] 1.26
LNERHYGGLTG [PGAM2_Y92] 0.557
FRDALYKSMVD [PHEX_Y250_F252S_YF] 0.857
FSNKLHFQLEQ [PDPR_Y109_Y109H_YF] 1.16
LNERHYGGLTD [PGAM2_Y92_G97D] 0.492
AGVIIYTSRFQ [PFAS_Y538_A535V] 0.657
VGGRIYIDDGL [PKLR_Y218] 0.832
QEALEYFMKQI [PIK3CA_Y1038_M1043I] 1.03
LNEQHYGGLTG [PGAM4_Y92_R90Q] 0.427
KLGDVYVNDAF [PGK1_Y161] 0.693
EYHRLYEEYTR [PIK3R1_Y467_D464H] 0.737
TKQLTYEEQDL [PIK3C3_Y310] 0.51

target: SHP2 N-SH2 domain T52S; assay: as above; conditions: peptide library: pTyr-Var

Enrichment score, inactive:
YRDALYKSMVD [PHEX_Y250_F252S] 0.846
RLQAAYNLVKR [PFKM_Y103_R100Q] 1.66
HLDRSYSYSYS [PEAR1_Y890_R885H] 0.446
AGEGSYALDSE [PES1_Y265_T264S] 0.429
FDDIAYIRKNL [PIK3CA_Y1021_T1025N] 0.876
IRFSDYVEVAD [PHACTR1_Y525] 1.22
QEALEYFMKQM [PIK3CA_Y1038] 1.27
LNERHYGGLTG [PGAM2_Y92] 0.717
FRDALYKSMVD [PHEX_Y250_F252S_YF] 0.89
FSNKLHFQLEQ [PDPR_Y109_Y109H_YF] 0.776
LNERHYGGLTD [PGAM2_Y92_G97D] 0.749
AGVIIYTSRFQ [PFAS_Y538_A535V] 0.648
VGGRIYIDDGL [PKLR_Y218] 1.32
QEALEYFMKQI [PIK3CA_Y1038_M1043I] 1.23
LNEQHYGGLTG [PGAM4_Y92_R90Q] 0.601
KLGDVYVNDAF [PGK1_Y161] 0.894
EYHRLYEEYTR [PIK3R1_Y467_D464H] 0.737
TKQLTYEEQDL [PIK3C3_Y310] 0.633

target: SHP2 N-SH2 domain wild-type; assay: as above; conditions: peptide library: pTyr-Var

Enrichment score, inactive:
YRDALYKSMVD [PHEX_Y250_F252S] 1.02
RLQAAYNLVKR [PFKM_Y103_R100Q] 1.57
HLDRSYSYSYS [PEAR1_Y890_R885H] 0.642
AGEGSYALDSE [PES1_Y265_T264S] 0.649
FDDIAYIRKNL [PIK3CA_Y1021_T1025N] 1.33
IRFSDYVEVAD [PHACTR1_Y525] 1.1
QEALEYFMKQM [PIK3CA_Y1038] 1.47
LNERHYGGLTG [PGAM2_Y92] 0.698
FRDALYKSMVD [PHEX_Y250_F252S_YF] 0.82
FSNKLHFQLEQ [PDPR_Y109_Y109H_YF] 0.931
LNERHYGGLTD [PGAM2_Y92_G97D] 0.704
AGVIIYTSRFQ [PFAS_Y538_A535V] 0.83
VGGRIYIDDGL [PKLR_Y218] 1.23
QEALEYFMKQI [PIK3CA_Y1038_M1043I] 1.48
LNEQHYGGLTG [PGAM4_Y92_R90Q] 0.427
KLGDVYVNDAF [PGK1_Y161] 1.03
EYHRLYEEYTR [PIK3R1_Y467_D464H] 0.994
TKQLTYEEQDL [PIK3C3_Y310] 0.7
